We go through 41 compounds from ChEMBL document CHEMBL4888484, “Replenishing the malaria drug discovery pipeline: Screening and hit evaluation of the MMV Hit Generation Library 1 (HGL1) against asexual blood stage Plasmodium falciparum ,using a nano luciferase reporter read-out” (2022).

Hit rate of the full screen: of about 150,000 compounds, about 540 (0.36%) showed an effect of 50% or more. Some of the results follow. Where a SMILES comes first, the peptide text is derived from it. The star is where a group is joined. Cbz = O=C(OCc1ccccc1)*

The assay deals with Plasmodium falciparum. Description: Primary screen in NF54 nanoGlo assay, in single point, at 2uM, 72h; a lower Z score goes with more inhibition. The class given is functional, Erythrocyte. Conditions: timepoint 72 hour.
For `CC(=O)N1CC[C@@](N)(C(=O)Nc2cnc3c(c2)CCCC3)C1`, the % Inhibition (commonly the relative decrease from the control value, in per cent) was determined as 2% and the Z score is given as -0.3.

`NC1(c2ccccc2)Cc2ccccc2C1`: the “% Inhibition” value was -7% and the Z score is listed as 0.94.

For the compound `COCCN1CCC[C@H](C(=O)Nc2c(C)c(C)cc3[nH]c(=O)[nH]c23)C1`, the “% Inhibition” value is listed as -5% and the Z score is on record as 0.89.

Take `CCCc1cc(C(=O)N(Cc2ccccc2)[C@H]2CCCC[C@@H]2O)[nH]n1`: the “% Inhibition” value is -14% and the Z score turned out to be 2.12.

Consider `O=C1c2ccccc2C(=O)N1c1cc(C(F)(F)F)cc(N2C(=O)c3ccccc3C2=O)c1Cl`, for which the “% Inhibition” value is given as -26% and the Z score is reported as 3.31.

On to `N#Cc1c(-c2cccnc2)cc(-c2ccc3ccccc3c2)[nH]c1=O`, for which the “% Inhibition” value came out at 4% and the Z score is -0.42.

As for `CC(=O)c1ccc(S(=O)(=O)N2C3CCC2CC(=C2CC2)C3)cc1`, the “% Inhibition” value was 12% and the Z score is -1.55.

Turning to `CCN1C(=O)C2(CCN(C(=O)COc3ccccc3)CC2)C[C@H]1C(=O)NCCOC`, the “% Inhibition” value came to 2% and the Z score was -0.22.

On to `COc1ccc(CN2CCN(C(=O)NC3CCCC3)CC2)cn1`, for which the “% Inhibition” value is -13% and the Z score came to 1.66.

`COC(=O)CNC(=O)[C@H](C)NC(=O)CNC(=O)OCc1ccccc1` (Cbz-Gly-Ala-Gly-OMe): the “% Inhibition” value is listed as -3% and the Z score is 0.38.

Turning to `CC1=CCN(C(=O)Nc2ccc(-c3nncn3C)cc2)CC1`, the “% Inhibition” value is 11% and the Z score is on record as -1.52.

For `COc1cc(C)c(S(=O)(=O)Oc2cc(C)nc3ccccc23)cc1C`, the “% Inhibition” value is -10% and the Z score is recorded as 1.84.

With `CCCS(=O)(=O)NC(=O)c1cccc(Br)c1Cl`, the “% Inhibition” value was -3% and the Z score was 0.28.

For the compound `O=C1c2ccccc2C(=O)N1c1ccc(N2C(=O)C3C4CCC(C4)C3C2=O)cc1` (configuration not stated), the “% Inhibition” value came to 3% and the Z score is reported as -0.41.

`N#Cc1cc2c([nH]c1=O)CCN(C(=O)c1cnn(-c3ccccc3)n1)C2`: the “% Inhibition” value is on record as -7% and the Z score is 1.11.

Take `Cc1cnc(C(=O)N(C)C2CCCC2)cn1`: the “% Inhibition” value was -5% and the Z score stood at 0.85.

With `CCOc1ccc(N2C[C@@H](C(=O)N(C)CC(=O)NCc3ccco3)CC2=O)cc1`, the “% Inhibition” value stood at 0% and the Z score stood at 0.04.

With `CCc1nc2cc(NC(=O)C[C@H]3C(=O)NCCN3Cc3ccccc3)ccc2n1CC`, the “% Inhibition” value is -17% and the Z score is reported as 1.74.

As to `Cc1ccc(C)c(CN(CCc2c[nH]c3ccccc23)Cc2nc(C(=O)NCC3CC3)co2)c1`, the “% Inhibition” value is on record as -5% and the Z score amounted to 0.84.

Turning to `N#Cc1ncc(Cl)cc1Br`, the “% Inhibition” value is listed as -14% and the Z score is on record as 1.56.

`Cc1cc(C(=O)Nc2nncs2)c2c(-c3ccccc3F)noc2n1`: the “% Inhibition” value was -3% and the Z score was found to be 0.39.

`C[C@@H](Cc1cnccn1)N(C)C(=O)CN1CCOC1=O`: the “% Inhibition” value was -15% and the Z score is 1.87.

With `C[C@H](NCc1cccc2c1OCO2)c1cccc(CO)c1`, the “% Inhibition” value is 3% and the Z score is -0.38.

On to `O=C(N1CCOC[C@@H]1CO)C1(c2ccccc2)CCOCC1`, for which the “% Inhibition” value is reported as -7% and the Z score came out at 1.02.

For `COCCO[C@@H](C)c1nnc2n1CCN(C(=O)OC(C)(C)C)C(C)(C)C2`, the “% Inhibition” value worked out at 0% and the Z score is 0.

On to `C[C@H]1CCCN(C(=O)CCC(=O)c2cnn(C)c2)c2ccccc21`, for which the “% Inhibition” value is recorded as 7% and the Z score is recorded as -0.92.

On to `Cc1ccc(CNC(=O)CCc2cccs2)s1`, for which the “% Inhibition” value is 3% and the Z score is -0.42.

For `Cc1cnc([C@H](C)NC(=O)NCc2cnccn2)s1`, the “% Inhibition” value turned out to be 11% and the Z score was -1.27.

With `COc1ccc2c(c1)C(N1CCN(S(=O)(=O)c3cccc(C)c3)[C@@H](C)C1)=Nc1ccccc1O2`, the “% Inhibition” value was 3% and the Z score is recorded as -0.41.

Take `O=c1[nH]nc(Cn2ccnc2)n1Cc1ccc(Cl)cc1Cl`: the “% Inhibition” value came out at 0% and the Z score is -0.08.

Regarding `COC(=O)N1CCCC[C@H]1C(=O)N1CCC2(CCCC2)C1`, the “% Inhibition” value is given as -7% and the Z score is given as 1.14.

`Cn1nccc1-c1cncc(CNC(=O)c2nc(-c3cccs3)cs2)c1`: the “% Inhibition” value came out at 11% and the Z score is -1.43.

On to `CC(C)(C)[C@@H](C#N)OC(=O)c1cccc(F)c1`, for which the “% Inhibition” value is given as -10% and the Z score was found to be 0.86.

With `CN(C)c1ccc(NC(=O)Cn2cc(S(=O)(=O)N3CCOCC3)ccc2=O)cc1`, the “% Inhibition” value is -1% and the Z score is 0.23.

For `Cc1cc(=O)n(CC(=O)N2CCC3(CC2)CC(=O)N(CC(C)C)C3)nc1C`, the “% Inhibition” value was found to be 1% and the Z score is -0.19.

For the compound `CC(C)Nc1cc(N(C)Cc2ccn[nH]2)nc(N)n1`, the “% Inhibition” value is -16% and the Z score was found to be 2.01.

Turning to `CC[C@H](O)C1CCN(CCS(C)(=O)=O)CC1`, the “% Inhibition” value is recorded as 2% and the Z score is reported as -0.27.

On to `CC1CCc2nc(C(=O)NC(CCO)C(C)C)cn2C1` (configuration not stated), for which the “% Inhibition” value is reported as -1% and the Z score is 0.2.

As for `Cc1ccc(Cc2nc(-c3ccc4c(c3)[nH]c(=O)n4C3CCCC3)no2)cc1`, the “% Inhibition” value was determined as 7% and the Z score is -0.99.

Regarding `CCc1ccc(CNc2cccc(NC(=O)OCCOC)c2)o1`, the “% Inhibition” value stood at 8% and the Z score was -1.05.

`COCCOC[C@H](C)Nc1cc(OC)c(Cl)cc1OC`: the “% Inhibition” value was determined as 6% and the Z score is -1.29.
